Results are given in words; binding and its absence hold for the method and conditions named. Some results given as binding are weak or reduced against the parent protein; the word gives no strength. Tags and fused reporters may be left off the sequences shown.
Experiments:
[1] = target: T1, HOS5 (High Osmotic Stress Gene Expression 5), full length, yeast two-hybrid fusion (Arabidopsis) (UniProt Q8W4B1); assay: two-hybrid; library screen with HOS5 as bait; hit HOS5 itself, data not shown
T1 sequence: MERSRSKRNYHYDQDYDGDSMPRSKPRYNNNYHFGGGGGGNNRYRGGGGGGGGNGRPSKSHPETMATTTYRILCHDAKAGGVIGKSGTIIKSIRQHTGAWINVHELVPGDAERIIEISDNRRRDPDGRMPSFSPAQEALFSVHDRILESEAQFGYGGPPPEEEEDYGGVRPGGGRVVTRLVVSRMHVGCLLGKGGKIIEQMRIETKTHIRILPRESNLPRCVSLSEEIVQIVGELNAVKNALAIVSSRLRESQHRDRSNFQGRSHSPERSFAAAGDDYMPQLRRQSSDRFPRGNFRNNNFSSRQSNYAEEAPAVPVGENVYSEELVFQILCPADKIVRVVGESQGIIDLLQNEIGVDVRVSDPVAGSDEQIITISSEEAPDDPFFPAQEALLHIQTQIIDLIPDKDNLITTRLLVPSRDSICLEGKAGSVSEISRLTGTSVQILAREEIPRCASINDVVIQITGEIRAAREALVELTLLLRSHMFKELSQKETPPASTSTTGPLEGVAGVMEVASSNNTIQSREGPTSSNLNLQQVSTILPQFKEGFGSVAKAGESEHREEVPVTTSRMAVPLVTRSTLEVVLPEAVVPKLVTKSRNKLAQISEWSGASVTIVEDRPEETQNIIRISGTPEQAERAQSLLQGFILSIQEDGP

[2] = target: T1, HOS5 (High Osmotic Stress Gene Expression 5), full length, yeast two-hybrid fusion (Arabidopsis); assay: two-hybrid; pairwise in yeast strain AH109: HOS5 in pBD (pGBK), FRY2 in pAD (pGAD); deletion constructs and hos5-1 against the full-length partner; growth on -TLHA medium plus X-alpha-Gal, -TL as transformation control
[3] = target: T2, FIERY2/RNAP II CTD phosphatase-like 1 (FRY2/CPL1), full length, yeast two-hybrid fusion (Arabidopsis) (UniProt Q5YDB6); assay: two-hybrid; library screen with FRY2 as bait; unpublished data
T2 sequence: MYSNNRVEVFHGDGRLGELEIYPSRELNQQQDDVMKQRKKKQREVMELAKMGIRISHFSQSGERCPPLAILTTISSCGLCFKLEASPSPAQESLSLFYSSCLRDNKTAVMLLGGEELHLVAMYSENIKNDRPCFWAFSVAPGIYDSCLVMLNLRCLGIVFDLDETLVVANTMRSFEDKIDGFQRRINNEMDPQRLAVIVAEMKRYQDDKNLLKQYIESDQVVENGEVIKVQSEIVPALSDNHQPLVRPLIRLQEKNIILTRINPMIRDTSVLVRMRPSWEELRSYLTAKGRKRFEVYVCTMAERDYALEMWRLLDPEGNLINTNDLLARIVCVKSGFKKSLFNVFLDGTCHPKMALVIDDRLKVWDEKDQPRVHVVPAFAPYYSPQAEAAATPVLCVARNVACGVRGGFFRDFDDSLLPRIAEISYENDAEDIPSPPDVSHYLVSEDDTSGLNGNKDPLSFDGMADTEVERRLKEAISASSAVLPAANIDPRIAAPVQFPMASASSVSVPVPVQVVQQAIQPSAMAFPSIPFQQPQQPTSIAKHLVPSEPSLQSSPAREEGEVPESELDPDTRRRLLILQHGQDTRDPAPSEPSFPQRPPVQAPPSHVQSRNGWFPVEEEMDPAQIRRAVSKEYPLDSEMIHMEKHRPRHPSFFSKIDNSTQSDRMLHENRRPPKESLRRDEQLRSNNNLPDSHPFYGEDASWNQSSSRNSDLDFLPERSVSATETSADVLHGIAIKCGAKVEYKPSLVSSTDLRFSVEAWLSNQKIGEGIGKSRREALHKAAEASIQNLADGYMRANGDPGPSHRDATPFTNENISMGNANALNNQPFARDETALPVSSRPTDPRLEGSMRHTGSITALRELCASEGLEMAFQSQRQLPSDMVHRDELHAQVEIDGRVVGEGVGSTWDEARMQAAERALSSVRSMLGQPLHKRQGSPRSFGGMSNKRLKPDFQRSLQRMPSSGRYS

Measured: binding

B1: HOS5 (High Osmotic Stress Gene Expression 5), full length, yeast two-hybrid fusion (protein, UniProt Q8W4B1 1-652)
chain: MERSRSKRNYHYDQDYDGDSMPRSKPRYNNNYHFGGGGGGNNRYRGGGGGGGGNGRPSKSHPETMATTTYRILCHDAKAGGVIGKSGTIIKSIRQHTGAWINVHELVPGDAERIIEISDNRRRDPDGRMPSFSPAQEALFSVHDRILESEAQFGYGGPPPEEEEDYGGVRPGGGRVVTRLVVSRMHVGCLLGKGGKIIEQMRIETKTHIRILPRESNLPRCVSLSEEIVQIVGELNAVKNALAIVSSRLRESQHRDRSNFQGRSHSPERSFAAAGDDYMPQLRRQSSDRFPRGNFRNNNFSSRQSNYAEEAPAVPVGENVYSEELVFQILCPADKIVRVVGESQGIIDLLQNEIGVDVRVSDPVAGSDEQIITISSEEAPDDPFFPAQEALLHIQTQIIDLIPDKDNLITTRLLVPSRDSICLEGKAGSVSEISRLTGTSVQILAREEIPRCASINDVVIQITGEIRAAREALVELTLLLRSHMFKELSQKETPPASTSTTGPLEGVAGVMEVASSNNTIQSREGPTSSNLNLQQVSTILPQFKEGFGSVAKAGESEHREEVPVTTSRMAVPLVTRSTLEVVLPEAVVPKLVTKSRNKLAQISEWSGASVTIVEDRPEETQNIIRISGTPEQAERAQSLLQGFILSIQEDGP
binds: [1] | [2] | [3]
